Reference: patent US20250136702A1, “HUMAN LIFR ANTIGEN BINDING PROTEIN, PREPARATION METHOD THEREFOR, AND APPLICATION THEREOF” (NONA BIOSCIENCES (SUZHOU) CO., LTD., priority 2020, published 2025)
Where a chain is given by its changes, count along the chain named. No constants are given. Whether binding was seen depends on the method and setting. Some entries that bind do so weakly or less than the wild type. Each block holds one binder with its values, some of them ahead of it.

By UniProt entry, the sequences of proteins in these tests, tags left out. Where a name states a change or a piece, a line headed by the entry shows the natural chain unless it says otherwise. Residues count along the entry.
UniProt P42702, residues 45-1097: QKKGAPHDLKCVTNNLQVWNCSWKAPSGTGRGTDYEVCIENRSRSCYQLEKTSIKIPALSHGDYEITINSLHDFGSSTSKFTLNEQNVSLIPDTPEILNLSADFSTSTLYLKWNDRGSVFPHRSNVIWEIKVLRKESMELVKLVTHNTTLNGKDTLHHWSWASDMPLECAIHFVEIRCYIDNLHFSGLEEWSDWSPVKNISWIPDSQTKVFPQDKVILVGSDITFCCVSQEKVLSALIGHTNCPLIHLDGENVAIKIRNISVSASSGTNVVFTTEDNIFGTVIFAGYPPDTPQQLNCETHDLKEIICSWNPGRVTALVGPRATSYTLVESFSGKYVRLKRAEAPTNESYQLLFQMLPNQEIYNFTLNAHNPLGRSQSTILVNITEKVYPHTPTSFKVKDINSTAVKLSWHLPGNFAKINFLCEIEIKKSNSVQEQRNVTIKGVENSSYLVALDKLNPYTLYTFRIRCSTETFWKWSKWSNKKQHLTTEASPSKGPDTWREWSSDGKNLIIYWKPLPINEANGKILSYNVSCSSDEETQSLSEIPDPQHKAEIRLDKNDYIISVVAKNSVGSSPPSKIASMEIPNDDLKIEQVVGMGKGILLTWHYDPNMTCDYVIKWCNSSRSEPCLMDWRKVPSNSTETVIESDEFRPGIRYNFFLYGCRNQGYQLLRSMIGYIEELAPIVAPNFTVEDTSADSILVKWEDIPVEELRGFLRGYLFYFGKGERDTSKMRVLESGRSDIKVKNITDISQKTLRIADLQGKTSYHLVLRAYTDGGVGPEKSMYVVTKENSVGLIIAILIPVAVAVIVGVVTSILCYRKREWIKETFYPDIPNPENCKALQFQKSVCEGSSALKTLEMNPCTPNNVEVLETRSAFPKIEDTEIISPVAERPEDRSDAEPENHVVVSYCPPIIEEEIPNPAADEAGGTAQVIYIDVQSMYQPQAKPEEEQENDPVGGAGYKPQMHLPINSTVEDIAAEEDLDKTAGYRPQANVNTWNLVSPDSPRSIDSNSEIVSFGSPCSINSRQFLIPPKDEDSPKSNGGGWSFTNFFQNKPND
UniProt P40189: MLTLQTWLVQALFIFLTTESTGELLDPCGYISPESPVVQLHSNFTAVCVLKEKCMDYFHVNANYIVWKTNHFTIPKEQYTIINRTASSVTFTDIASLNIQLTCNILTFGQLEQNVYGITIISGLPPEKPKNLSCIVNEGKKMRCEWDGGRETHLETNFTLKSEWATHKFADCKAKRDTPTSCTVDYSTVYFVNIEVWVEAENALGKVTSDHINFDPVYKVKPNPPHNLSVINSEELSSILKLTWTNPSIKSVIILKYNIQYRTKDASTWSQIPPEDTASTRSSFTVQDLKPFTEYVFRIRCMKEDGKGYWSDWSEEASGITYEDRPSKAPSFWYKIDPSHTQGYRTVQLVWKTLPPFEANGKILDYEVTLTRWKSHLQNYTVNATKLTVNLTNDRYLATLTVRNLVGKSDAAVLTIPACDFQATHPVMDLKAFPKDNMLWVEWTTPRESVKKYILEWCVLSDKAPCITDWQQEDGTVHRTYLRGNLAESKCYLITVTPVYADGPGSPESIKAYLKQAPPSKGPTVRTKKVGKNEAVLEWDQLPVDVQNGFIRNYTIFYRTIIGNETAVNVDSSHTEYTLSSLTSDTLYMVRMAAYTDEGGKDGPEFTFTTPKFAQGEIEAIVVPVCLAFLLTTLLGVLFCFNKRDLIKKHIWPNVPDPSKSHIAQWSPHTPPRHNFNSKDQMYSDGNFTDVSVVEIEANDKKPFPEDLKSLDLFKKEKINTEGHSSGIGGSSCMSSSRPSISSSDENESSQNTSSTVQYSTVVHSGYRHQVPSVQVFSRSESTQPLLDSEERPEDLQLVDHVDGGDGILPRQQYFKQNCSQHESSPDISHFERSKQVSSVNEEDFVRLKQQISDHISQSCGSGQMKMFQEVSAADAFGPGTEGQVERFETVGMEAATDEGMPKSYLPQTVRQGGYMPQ
UniProt P42703, residues 44-828: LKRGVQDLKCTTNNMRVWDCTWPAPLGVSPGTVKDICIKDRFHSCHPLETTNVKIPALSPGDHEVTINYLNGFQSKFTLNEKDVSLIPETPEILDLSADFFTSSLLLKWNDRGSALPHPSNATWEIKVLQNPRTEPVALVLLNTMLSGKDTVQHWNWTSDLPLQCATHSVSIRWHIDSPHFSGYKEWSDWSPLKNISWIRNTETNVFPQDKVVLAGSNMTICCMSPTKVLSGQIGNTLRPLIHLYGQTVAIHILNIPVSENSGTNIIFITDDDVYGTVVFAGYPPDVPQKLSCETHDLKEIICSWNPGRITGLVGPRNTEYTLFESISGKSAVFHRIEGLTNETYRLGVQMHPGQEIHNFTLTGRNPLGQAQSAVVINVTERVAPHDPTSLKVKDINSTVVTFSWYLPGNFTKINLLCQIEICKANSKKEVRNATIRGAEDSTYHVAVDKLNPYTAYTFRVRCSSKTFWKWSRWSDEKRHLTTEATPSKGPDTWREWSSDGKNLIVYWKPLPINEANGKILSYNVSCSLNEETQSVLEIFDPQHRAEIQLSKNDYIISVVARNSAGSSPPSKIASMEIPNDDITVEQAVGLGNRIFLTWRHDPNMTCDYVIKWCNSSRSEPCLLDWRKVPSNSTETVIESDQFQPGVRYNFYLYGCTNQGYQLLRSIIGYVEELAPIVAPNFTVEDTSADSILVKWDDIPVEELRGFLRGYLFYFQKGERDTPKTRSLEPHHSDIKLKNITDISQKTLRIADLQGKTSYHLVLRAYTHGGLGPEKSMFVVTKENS

Assays:
[1] = target: T1, human LIFR/gp130 heterodimer expressed on the surface of 293T cells (human) (UniProt P42702+P40189); experiment: flow cytometry on cells
[2] = target: human LIFR expressed on the surface of 293T cells (human) (UniProt P42702); experiment: flow cytometry on cells
[3] = target: T1, human LIFR/gp130 heterodimer expressed on the surface of 293T cells (human); experiment: flow cytometry on HEK293T-huLIFR/gp130 cells, FITC goat anti-human secondary antibody, FITC MFI against mAb concentration in nM
[4] = target: T1, human LIFR/gp130 heterodimer expressed on the surface of 293T cells (human); experiment: flow cytometry blocking assay: binding of huLIF-biotin (at its EC80) to HEK293T-huLIFR/gp130 cells, APC-streptavidin, APC MFI against mAb concentration in nM
[5] = target: human LIFR expressed on the surface of 293T cells (human) (UniProt P42702); experiment: flow cytometry on HEK293T-huLIFR cells, FITC goat anti-human secondary antibody, FITC MFI against mAb concentration in nM
[6] = target: mouse LIFR-ECD protein (mouse) (UniProt P42703); experiment: ELISA, plate coated with 1 ug/mL mouse LIFR-ECD; same ELISA on coated mouse LIFR-ECD as M41; no different condition
[7] = target: T1, human LIFR/gp130 heterodimer expressed on the surface of 293T cells (human); experiment: flow cytometry blocking assay: binding of huLIF-biotin (at its EC80) to HEK293T-huLIFR/gp130 cells, APC-streptavidin, APC MFI
[8] = target: mouse LIFR-ECD protein (mouse) (UniProt P42703); experiment: ELISA
[9] = target: mouse LIFR-ECD protein (mouse) (UniProt P42703); experiment: ELISA on plate-coated mouse LIFR-ECD (1 ug/mL), anti-human IgG Fc-HRP, OD450nm against mAb concentration in nM
[10] = target: T1, human LIFR/gp130 heterodimer expressed on the surface of 293T cells (human); experiment: flow cytometry on HEK293T-huLIFR/gp130 cells, FITC goat anti-human secondary antibody, FITC MFI

binding [4]: binds
B2: PR301215 (antibody, human IgG1, kappa, V domains shown)
VH: QVQLVESGGGVVQPGRSLRLSCAASGFTFSSYGMHWVRQAPGKGLEWVAVIWFDGSIKYYADSVKGRFTISRDNSKNTLYLQMNSLRAEDTAIYYCARGQLVQDFWGRGTLVTVSS
VL: DIQMTQSPSTLSASVGDRVTITCRASQSISSWLAWYQQKPGKAPNLLMYKASNLESGVPSRFSGSGSGTEFTLTITSLQPDDFASYYCQQYKSNPLTFGGGTKVEIKR

binding [4]: binds
B3: PR301195 (antibody, human IgG1, kappa, V domains shown)
VH: B2 VH with H35N
VL: B2 VL

binding [4]: binds
B5: PR301196 (antibody, human IgG1, kappa, V domains shown)
VH: B2 VH with H35N
VL: B2 VL with S56N, P59S, S85T

binding [8]: binds
binding [9]: binds
B8: PR301172 (antibody, human IgG1, kappa, V domains shown)
VH: EVQLLESGGGLVQPGGSLRLSCATSGFTFSNYAMTWVRQAPGKGLEWVVISGSGFLTYYADAVKGRFTISRVNSKNSLYLQMNSLRAEDTAVYYCTKGGILTGFDYWGQGTLVTVSS
VL: KIVMTQSPATLSVSPGERATLSCRASQNLNSNLAWYQQTPGQAPRLLIYGASTRAPGIPARFSGSGSGTEFTLTISSLQSEDFVVYFCQQYNNWPRTFGQGTKVEIKR

Further lines, the binder ahead of its results:

B1: PR301211 (antibody, human IgG1, kappa, V domains shown)
VH: B2 VH with I57L, T69A, Y94F, F105L
VL: B2 VL
binding [1]: binds
binding [2]: binds
binding [3]: binds
binding [4]: binds
binding [5]: binds
binding [6]: no binding (tested: up to 100 nM)

B4: PR301218 (antibody, human IgG1, kappa, V domains shown)
VH: B2 VH with I57V
VL: B2 VL
binding [4]: binds

B6: PR301127 (antibody, human IgG1, kappa, V domains shown)
VH: EVQLLQSGGGLVQPGGSLRLSCAASGFTFSNYAMTWVRQAPGKGLEWVSTISGSGAFTYYADAVKGRFTISRVNSKNSLDLQMNSLRAEDTAVYYCAKGGILTGFDNWGQGTLVTVSS
VL: DIQMTQSPSTLSASVGDRVTITCRASQSISSWLAWYQQKPGKAPKLLIYKASSLESGVPSRFSGSGSGTEFSFTISSLQPDDFATYYCQQYKSFSPGGLTFGGGTKVEIKR
binding [7]: no binding (tested: 100 nM)
binding [8]: binds
binding [9]: binds
binding [10]: no binding (tested: 100 nM)

B7: PR301177 (antibody, human IgG1, kappa, V domains shown)
VH: QVQLVESGGGVVQPGRSLRLSCVASGFTFSSYGMNWVRQAPGKGLDWVTVIWFDGSNKYYADSVKGRFTISRDNSKNTLYLQMNSLRAEDTAMYYCARGERTLDLWGQGTLVTVSS
VL: B6 VL
binding [4]: binds
